{
  "sequences": {"note": "By UniProt entry, the sequences of proteins in these tests, tags left out. Where a name states a change or a piece, a line headed by the entry shows the natural chain unless it says otherwise. Chains listed by the source or under a name are the forms on record and can include a tag or linker.", "UniProt P61073": "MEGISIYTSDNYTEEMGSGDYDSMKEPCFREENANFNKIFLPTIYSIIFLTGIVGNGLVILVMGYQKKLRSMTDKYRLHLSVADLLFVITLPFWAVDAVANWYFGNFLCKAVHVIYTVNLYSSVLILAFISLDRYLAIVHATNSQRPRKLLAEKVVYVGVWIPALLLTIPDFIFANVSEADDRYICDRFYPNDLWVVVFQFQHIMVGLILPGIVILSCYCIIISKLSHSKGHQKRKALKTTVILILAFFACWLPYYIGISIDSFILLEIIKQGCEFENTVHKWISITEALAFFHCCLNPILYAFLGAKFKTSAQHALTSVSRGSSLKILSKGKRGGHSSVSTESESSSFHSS", "UniProt P32302": "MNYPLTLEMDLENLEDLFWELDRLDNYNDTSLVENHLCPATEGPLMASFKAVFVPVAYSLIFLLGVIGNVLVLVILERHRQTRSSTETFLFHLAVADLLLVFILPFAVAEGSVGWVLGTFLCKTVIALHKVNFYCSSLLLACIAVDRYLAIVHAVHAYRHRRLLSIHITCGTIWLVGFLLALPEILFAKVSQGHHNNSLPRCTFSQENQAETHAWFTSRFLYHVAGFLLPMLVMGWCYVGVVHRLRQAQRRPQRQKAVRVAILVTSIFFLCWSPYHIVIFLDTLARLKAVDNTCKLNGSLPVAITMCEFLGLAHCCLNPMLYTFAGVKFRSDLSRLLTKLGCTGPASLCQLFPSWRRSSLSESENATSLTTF", "CXCR5-RLuc8-4S/A (P32302, form named)": "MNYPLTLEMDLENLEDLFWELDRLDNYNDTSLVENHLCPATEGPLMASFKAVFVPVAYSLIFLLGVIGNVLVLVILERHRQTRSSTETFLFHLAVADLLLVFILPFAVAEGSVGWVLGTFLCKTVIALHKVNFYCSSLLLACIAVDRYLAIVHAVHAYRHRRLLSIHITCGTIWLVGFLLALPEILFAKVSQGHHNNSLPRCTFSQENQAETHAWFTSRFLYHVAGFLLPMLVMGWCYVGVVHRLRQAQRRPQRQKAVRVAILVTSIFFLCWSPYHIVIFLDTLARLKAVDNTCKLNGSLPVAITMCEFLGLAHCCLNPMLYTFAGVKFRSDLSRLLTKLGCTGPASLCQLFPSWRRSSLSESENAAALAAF"},
  "source": "paper PMC9465349",
  "about": "“G protein–coupled receptor kinase phosphorylation of distal C-tail sites specifies βarrestin1-mediated signaling by chemokine receptor CXCR4” (The Journal of Biological Chemistry, 2022)",
  "molecules": {"B1": {"name": "βarrestin1-GFP10 (natural protein, UniProt P49407 1-418, looked up)", "chain": "MGDKGTRVFKKASPNGKLTVYLGKRDFVDHIDLVDPVDGVVLVDPEYLKERRVYVTLTCAFRYGREDLDVLGLTFRKDLFVANVQSFPPAPEDKKPLTRLQERLIKKLGEHAYPFTFEIPPNLPCSVTLQPGPEDTGKACGVDYEVKAFCAENLEEKIHKRNSVRLVIRKVQYAPERPGPQPTAETTRQFLMSDKPLHLEASLDKEIYYHGEPISVNVHVTNNTNKTVKKIKISVRQYADICLFNTAQYKCPVAMEEADDTVAPSSTFCKVYTLTPFLANNREKRGLALDGKLKHEDTNLASSTLLREGANREILGIIVSYKVKVKLVVSRGGLLGDLASSDVAVELPFTLMHPKPKEEPPHREVPENETPVDTNLIELDTNDDDIVFEDFARQRLKGMKDDKEEEEDGTGSPQLNNR", "notes": "βarrestin1 (βarr1); plasmid a gift from Michel Bouvier; Gift plasmid; also called βarr1-GFP; βarr1-GFP^10; source: HEK293, transiently transfected (PEI), in live cells"}},
  "key": {"CXCR4-Rluc3": {"biological_target": "T1, CXCR4-Rluc3 (UniProt P61073 1-352)", "T1 construct": "chemokine receptor CXCR4; plasmid a gift from Nikolaus Heveker; Gift plasmid; also called Rluc3-tagged CXCR4; source: HEK293, transiently transfected (PEI), in live cells", "assay": "FRET or BRET; BRET in live HEK293 cells coexpressing CXCR4-Rluc3 or CXCR5-Rluc8 with STAM1-GFP, cotransfected with βarr1; increasing concentrations of CXCL12 or CXCL13, 10 min, 37 °C"}, "[1]": {"biological_target": "CXCR5 tagged with Rluc8 at the C terminus (wild type) (UniProt P32302)", "assay": "FRET or BRET; BRET in live HEK293 cells coexpressing CXCR4-Rluc3 or CXCR5-Rluc8 with STAM1-GFP, cotransfected with βarr1; increasing concentrations of CXCL12 or CXCL13, 10 min, 37 °C"}, "βarrestin1-GFP10 [2]": {"biological_target": "B1", "assay": "condition: only in cells expressing CXCR4 Ser-346/7A in place of wild-type CXCR4 (CXCL12); FRET or BRET; BRET2 in live HEK293 cells coexpressing HA-tagged CXCR4 Ser-346/7A, Rluc8-STAM1 and βarr1-GFP; increasing concentrations of CXCL12, 10 min, 37 °C"}, "βarrestin1-GFP10 [3]": {"biological_target": "B1", "assay": "condition: only in cells expressing the chimera CXCR4-R5 tail stimulated with CXCL12; FRET or BRET; BRET2 in live HEK293 cells coexpressing the chimera CXCR4 with the C-tail of CCR5 (CXCR4-R5 tail), Rluc8-STAM1 and βarr1-GFP; increasing concentrations of CXCL12, 10 min, 37 °C"}, "βarrestin1-GFP10 [4]": {"biological_target": "B1", "assay": "condition: only with 30 μM GRK2/3 inhibitor compound 101 (cells expressing HA-CXCR4, CXCL12); FRET or BRET; as a1, but cells pretreated with 30 μM GRK2/3 inhibitor compound 101 (30 min) before CXCL12"}, "βarrestin1-GFP10 [5]": {"biological_target": "B1", "assay": "FRET or BRET; BRET2 in live HEK293 cells coexpressing the chimera CCR5 with the C-tail of CXCR4 (CCR5-R4 tail), Rluc8-STAM1 and βarr1-GFP; increasing concentrations of CCL5, 10 min, 37 °C"}, "βarrestin1-GFP10 [6]": {"biological_target": "B1", "assay": "FRET or BRET; BRET2 in live HEK293 cells coexpressing FLAG-CXCR5 (wild type), Rluc8-STAM1 and βarr1-GFP; increasing concentrations of CXCL13, 10 min, 37 °C"}, "βarrestin1-GFP10 [7]": {"biological_target": "B1", "assay": "FRET or BRET; BRET2 in live HEK293 cells coexpressing HA-CXCR4, Rluc8-STAM1 (donor) and βarr1-GFP10 (acceptor); increasing concentrations of CXCL12 at 37 °C, read at room temperature 10 min after CXCL12; vehicle or 1 μM PKC inhibitor Gö6983 (no effect)"}, "βarrestin1-GFP10 [8]": {"biological_target": "B1", "assay": "FRET or BRET; BRET2 in live HEK293 cells coexpressing HA-tagged CXCR4 Ser-324/5A, Rluc8-STAM1 and βarr1-GFP; increasing concentrations of CXCL12, 10 min, 37 °C"}, "βarrestin1-GFP10 [9]": {"biological_target": "B1", "assay": "condition: only in cells expressing FLAG-CXCR5-4S/A stimulated with CXCL13; FRET or BRET; BRET2 in live HEK293 cells coexpressing FLAG-CXCR5-4S/A, Rluc8-STAM1 and βarr1-GFP; increasing concentrations of CXCL13, 10 min, 37 °C"}, "βarrestin1-GFP10 [10]": {"biological_target": "B1", "assay": "condition: only in cells expressing FLAG-β2AR stimulated with isoproterenol; FRET or BRET; BRET2 in live HEK293 cells coexpressing FLAG-β2AR, Rluc8-STAM1 and βarr1-GFP; increasing concentrations of isoproterenol, 10 min, 37 °C"}, "βarrestin1-GFP10 [11]": {"biological_target": "B1", "assay": "condition: only in cells expressing CCR5 stimulated with CCL5; FRET or BRET; BRET2 in live HEK293 cells coexpressing CCR5 (HA-tagged in the legend, FLAG-CCR5 in the text), Rluc8-STAM1 and βarr1-GFP; increasing concentrations of CCL5, 10 min, 37 °C"}, "CXCR5-RLuc8-4S/A": {"biological_target": "CXCR5-RLuc8-4S/A (UniProt P32302)", "assay": "FRET or BRET; BRET2 in live HEK293 cells coexpressing a GPCR tagged with Rluc (CXCR4-Rluc3, or GPCR-Rluc8; donor) and βarr1-GFP10 (acceptor); increasing concentrations of the receptor's agonist at 37 °C; vehicle or 1 μM Gö6983 (little effect, CXCR4)"}, "[12]": {"biological_target": "CXCR5 tagged with Rluc8 at the C terminus (wild type) (UniProt P32302)", "assay": "FRET or BRET; BRET2 in live HEK293 cells coexpressing a GPCR tagged with Rluc (CXCR4-Rluc3, or GPCR-Rluc8; donor) and βarr1-GFP10 (acceptor); increasing concentrations of the receptor's agonist at 37 °C; vehicle or 1 μM Gö6983 (little effect, CXCR4)"}},
  "note": "These are yes or no findings as the source states them, for the method shown. Binding seen in cells or lysates may run through a third protein. Some entries that bind do so weakly or less than the wild type.",
  "data": [
    {"molecule": "STAM1-GFP (from UniProt Q92783 1-540)", "values": [
      {"measurement": "binding", "setting": "CXCR4-Rluc3", "value": "binds"},
      {"measurement": "binding", "setting": "[1]", "value": "binds"}
    ]},
    {"molecule": "STAM1 (signal-transducing adaptor molecule 1) tagged at the N terminus with Rluc8 (natural protein, UniProt Q92783 1-540, looked up, STAM1 (signal-transducing adaptor molecule 1); the plasmid holds 'the STAM1-coding region' in pcDNA3; New plasmid; Rluc8 fragment from pTRE-Tight-Rluc8 (Addgene 79844); also called Rluc8-STAM1; RLuc8-STAM1; source: HEK293, transiently transfected (PEI), in live cells; not shown: Rluc8, N-terminal, kept) MPLFATNPFDQDVEKATSEMNTAEDWGLILDICDKVGQSRTGPKDCLRSIMRRVNHKDPHVAMQALTLLGACVSNCGKIFHLEVCSRDFASEVSNVLNKGHPKVCEKLKALMVEWTDEFKNDPQLSLISAMIKNLKEQGVTFPAIGSQAAEQAKASPALVAKDPGTVANKKEEEDLAKAIELSLKEQRQQSTTLSTLYPSTSSLLTNHQHEGRKVRAIYDFEAAEDNELTFKAGEIITVLDDSDPNWWKGETHQGIGLFPSNFVTADLTAEPEMIKTEKKTVQFSDDVQVETIEPEPEPAFIDEDKMDQLLQMLQSTDPSDDQPDLPELLHLEAMCHQMGPLIDEKLEDIDRKHSELSELNVKVMEALSLYTKLMNEDPMYSMYAKLQNQPYYMQSSGVSGSQVYAGPPPSGAYLVAGNAQMSHLQSYSLPPEQLSSLSQAVVPPSANPALPSQQTQAAYPNTMVSSVQGNTYPSQAPVYSPPPAATAAAATADVTLYQNAGPNMPQVPNYNLTSSTLPQPGGSQQPPQPQQPYSQKALL", "values": [
      {"measurement": "binding", "setting": "βarrestin1-GFP10 [2]", "value": "no binding"},
      {"measurement": "binding", "setting": "βarrestin1-GFP10 [3]", "value": "no binding"},
      {"measurement": "binding", "setting": "βarrestin1-GFP10 [4]", "value": "no binding"},
      {"measurement": "binding", "setting": "βarrestin1-GFP10 [5]", "value": "binds"},
      {"measurement": "binding", "setting": "βarrestin1-GFP10 [6]", "value": "binds"},
      {"measurement": "binding", "setting": "βarrestin1-GFP10 [7]", "value": "binds"},
      {"measurement": "binding", "setting": "βarrestin1-GFP10 [8]", "value": "binds"},
      {"measurement": "binding", "setting": "βarrestin1-GFP10 [9]", "value": "no binding"},
      {"measurement": "binding", "setting": "βarrestin1-GFP10 [10]", "value": "no binding"},
      {"measurement": "binding", "setting": "βarrestin1-GFP10 [11]", "value": "no binding"}
    ]},
    {"molecule": "B1", "values": [
      {"measurement": "binding", "setting": "CXCR5-RLuc8-4S/A", "value": "no binding"},
      {"measurement": "binding", "setting": "[12]", "value": "binds"}
    ]}
  ]
}
